# Paper PMC4336329 (PLoS ONE, 2015)
# About 2,200 (0.71%) of roughly 310,000 compounds showed an effect of 50% or more. The effect is printed as a negative number. The list shows a part of the results.
# Target: human ether-à-go-go-related gene (hERG) potassium channel (human, UniProt Q12809)
# Test: primary screen, population patch clamp on CHO cells stably expressing hERG
# Chain of human ether-à-go-go-related gene (hERG) potassium channel (Q12809 whole entry, looked up): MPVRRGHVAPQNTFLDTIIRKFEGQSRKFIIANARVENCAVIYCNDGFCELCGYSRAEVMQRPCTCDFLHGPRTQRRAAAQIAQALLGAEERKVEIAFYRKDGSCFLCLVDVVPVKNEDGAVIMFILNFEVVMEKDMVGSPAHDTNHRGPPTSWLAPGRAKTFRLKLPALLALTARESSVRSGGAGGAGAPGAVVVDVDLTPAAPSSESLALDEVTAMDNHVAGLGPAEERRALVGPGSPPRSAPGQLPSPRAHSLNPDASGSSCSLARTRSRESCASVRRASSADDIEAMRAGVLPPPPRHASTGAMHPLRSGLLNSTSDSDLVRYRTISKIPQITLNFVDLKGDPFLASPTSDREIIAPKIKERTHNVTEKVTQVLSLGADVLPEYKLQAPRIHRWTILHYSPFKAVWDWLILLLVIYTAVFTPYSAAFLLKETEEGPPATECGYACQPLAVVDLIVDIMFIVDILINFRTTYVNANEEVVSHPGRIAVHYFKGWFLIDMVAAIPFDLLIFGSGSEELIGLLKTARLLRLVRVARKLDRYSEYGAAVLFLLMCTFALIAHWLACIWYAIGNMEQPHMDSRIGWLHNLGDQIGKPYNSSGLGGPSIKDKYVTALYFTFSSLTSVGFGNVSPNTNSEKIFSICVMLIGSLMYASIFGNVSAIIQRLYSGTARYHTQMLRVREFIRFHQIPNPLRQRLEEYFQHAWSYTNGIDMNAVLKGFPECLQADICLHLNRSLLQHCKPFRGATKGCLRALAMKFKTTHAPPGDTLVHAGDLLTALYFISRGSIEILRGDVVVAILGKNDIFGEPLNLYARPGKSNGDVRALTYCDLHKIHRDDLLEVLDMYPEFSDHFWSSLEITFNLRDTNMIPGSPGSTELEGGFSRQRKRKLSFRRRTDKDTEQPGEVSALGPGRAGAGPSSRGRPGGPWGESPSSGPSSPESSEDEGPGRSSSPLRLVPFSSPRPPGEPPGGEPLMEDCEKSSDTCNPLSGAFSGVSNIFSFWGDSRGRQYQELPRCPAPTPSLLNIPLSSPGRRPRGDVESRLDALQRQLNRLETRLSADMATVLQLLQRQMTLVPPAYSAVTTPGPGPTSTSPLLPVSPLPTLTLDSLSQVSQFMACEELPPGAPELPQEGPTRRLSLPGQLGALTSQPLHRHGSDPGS
row,Structure (SMILES),"hERG current change (%, negative = inhibition) at 1uM"
1,Cc1ccc(NC(=O)CCCCCC2NC(=O)NC2C)cc1 (stereo not shown),-0.122%
2,CCOc1ccc(S(=O)(=O)N(CC(=O)Nc2cccnc2)c2ccc(F)cc2)cc1,7.51%
3,CCCC1=C(C(=O)OCC)C(c2cc(Cl)cc(OC)c2OCC(=O)OCC)NC(=O)N1 (stereo not shown),13.8%
4,Cc1noc(C)c1C(=O)OC(C(=O)NC1CCCC1)c1ccc(F)cc1 (stereo not shown),12.5%
5,CCCc1ccc2oc(C(=O)N(C)Cc3ccn[nH]3)c(C)c2c1,9.38%
6,CC(C(=O)Nc1ccc(S(=O)(=O)N2CCCC2)cc1)N(C)Cc1ccc(F)cc1 (stereo not shown),4.88%
7,COc1ccc(C2CC3(O)CC(C#N)(C(=O)N3)C2(C#N)C#N)cc1 (stereo not shown),18.9%
8,Cc1ccc(NC(=O)CSc2nc(O)cc(=O)n2-c2ccc(C)cc2)cc1,15.9%
9,CCc1cc(C(=O)Nc2nc(-c3ccccn3)cs2)sc1C,14.3%
10,CCOc1ccccc1N1CCN(C(=O)c2ccc3[nH]c(C)c(C)c3c2)CC1,11.6%
11,CCOc1ccc(NC(=O)CN(C)c2nnnn2-c2ccccc2)cc1OCC,5.31%
12,CCCn1nnc(NC(=S)NC(=O)C(C)(C)C)n1,4.47%
13,COc1ccc(C(=O)N/N=C/c2cn[nH]c2-c2ccc(OC)cc2OC)cc1,39.7%
14,CCOc1ccc(C2C(C(=O)O)CCC(=O)N2C2CCCCC2)cc1 (stereo not shown),3.64%
15,CCOC(=O)c1cnc(-n2nc(C)cc2C)nc1Oc1ccccc1F,7.62%
16,CC1CCN(C(C)C(=O)Nc2cc(S(=O)(=O)N3CCCCC3)ccc2Cl)CC1 (stereo not shown),5.41%
17,O=C(O)Cn1cc2c(n1)CCCCC2,7.91%
18,CCN(CC)S(=O)(=O)c1ccc(N2CCOCC2)c(NC(=O)C(C)(C)C)c1,6.58%
19,COCCn1c(SCC(=O)NC(C)c2ccc(F)cc2)nc2ccccc21 (stereo not shown),6.94%
20,CC1(C)CC2CC(C)(CN2S(=O)(=O)c2ccc(C(=O)Nc3ccc(S(=O)(=O)N4CCOCC4)cc3)cc2)C1 (stereo not shown),5.71%
21,O=c1c2ccccc2nc2c3ccccc3c(NCc3cccnc3)nn12,6.3%
22,CC(OC(=O)c1ccc2c(=O)n3c(nc2c1)CCC3)C(N)=O (stereo not shown),13.3%

row,Structure (SMILES),"hERG current change (%, negative = inhibition) at 1uM"
1,Cc1c(C(=O)OCC(=O)NC(C)c2ccccc2)oc2ccccc12 (stereo not shown),0.498%
2,Cc1ccc(OC(=O)COc2ccccc2)c(-n2nc3ccccc3n2)c1,14.3%
3,Cc1cc2c(OCC(O)CN3CCCC3)cccc2[nH]1 (stereo not shown),13.8%
4,CCN(c1ccccc1)S(=O)(=O)c1cc2c(cc1C)N(C)CCO2,4.71%
5,O=S(=O)(Cc1cccc(F)c1)c1c[nH]c2ccccc12,9.8%
6,Cc1ccc(SCC(=O)OCC(=O)NC2CCCCCC2)cc1,9.2%
7,Clc1cccc(N2CCN(c3ncnc4nc[nH]c34)CC2)c1,13.3%
8,CC(C)N(Cc1cn[nH]c1-c1ccc(-c2ccccc2)cc1)Cc1nccn1C,-4%
9,Cc1ccc(C(=O)Nc2cccc(-c3cnc4ccccc4n3)c2)cc1,11.5%
10,O=C(c1ccc2c(c1)OCO2)N1CCCC1,16.1%
11,COC(=O)[C@H]1C[C@@H]1[C@H](NC(=O)c1cc(C)on1)c1ccccc1,17%
12,COc1ccccc1NC(=O)N1CCN(C(=O)Nc2ccccc2OC)CC1,5.86%
13,C#CCOCCOCCOCCNc1nc(N2CCN(C(=O)Cn3cc(CCCC[NH3+])nn3)CC2)nc(N2CCN(C(=O)[C@H](CCCC[NH3+])n3cc(CCC(=O)O)nn3)CC2)n1.[Cl-],12.7%
14,O=C(COC(=O)c1ccccc1NCCO)NCc1cccs1,9.08%
15,COC(=O)c1cn(C(C)C(=O)NCc2ccco2)c2ccccc12 (stereo not shown),18.8%
16,Cc1cc(=O)c(C(=O)c2ccccc2)c(C)o1,18.2%
17,Cc1ccc(CN2CCN(Cc3cn[nH]c3-c3cccc(F)c3)CC2CCO)o1 (stereo not shown),-4.08%
18,CC1CCCCC1NC(=O)c1ccc(-n2cncn2)c([N+](=O)[O-])c1 (stereo not shown),-0.198%
19,COc1ccc(C2CC(c3ccccc3Cl)Nc3ncnn32)cc1OC (stereo not shown),-1.34%
20,Cc1ccnc(NC(=O)CCC(=O)N(CC(=O)NC2CCCCC2)c2ccc3c(c2)OCO3)c1,14.1%
21,COC(=O)C1CCCN1C(=O)COc1ccc(Br)cc1Cl (stereo not shown),13.8%
22,CCCC[n+]1c(C)sc2cc(OC)ccc21.[I-],13.3%

row,Structure (SMILES),"hERG current change (%, negative = inhibition) at 1uM"
1,Cl.O=S(=O)(NCCN1CCOCC1)c1cccc(C(F)(F)F)c1,8.21%
2,O=C(NCc1ccc(F)cc1)c1cccs1,14.1%
3,C=CCNc1nc(C(=O)OCC(=O)c2cccc(Br)c2)cs1,-0.401%
4,CC(=NCc1cccnc1)c1c(O)n(Cc2ccccc2)c(=O)[nH]c1=O,-11.5%
5,Cc1ccc(S[C@@H](CCN2CC[C@H](C)CCC2=O)c2ccccc2)cc1,4.14%
6,CCOC(=O)N1CCC(NC(=O)CSCc2nc(-c3ccccc3Cl)oc2C)CC1,-12.4%
7,COc1ccc(/C=N/N=C(/N)N[N+](=O)[O-])c(OC)c1,7.59%
8,COc1cc(OC)c(C(=O)NCC(c2cccs2)N(C)C)cc1OC (stereo not shown),6.43%
9,COc1ccc(S(=O)(=O)N(C)CC(=O)Nc2ccc3c(c2)OCCO3)cc1OC,10.7%
10,O=C(CSc1nc2ccc(Cl)cc2[nH]1)NC1CCCC1,11%
11,COCCCn1c(SCc2cccc(C(F)(F)F)c2)nc2cc(OC)c(OC)cc2c1=N,11.4%
12,Cc1nc2cc(NC(=O)N3CCN(c4ccccn4)CC3)ccc2o1,11.1%
13,Cc1nn(C(=O)c2cccs2)c(C)c1CN1C(=O)c2ccccc2C1=O,6.2%
14,O=C(NCc1ccccc1)c1c[nH]c2ccccc2c1=O,12.1%
15,O=C(NCCCN1CCOCC1)c1cccc(S(=O)(=O)N2CCOCC2)c1,11.1%
16,CCCCCn1c(=O)[nH]c2cc(C(=O)NCCN3C(C)CCCC3C)ccc2c1=O (stereo not shown),8.81%
17,CCN(CC)S(=O)(=O)c1cc(C(=O)Nc2ccncc2)ccc1Cl,-42.7%
18,Cc1ccc(NC(=O)C2CCN(C(=O)NC3CCCCC3)CC2)c(C)c1,5.28%
19,Cc1sc(NC(=O)/C=C/c2ccco2)c(C(=O)O)c1C,2.6%
20,Cc1ccc(Cl)cc1NC(=O)c1cc(NC(=O)C2CCCCC2C(=O)O)ccc1N1CCOCC1 (stereo not shown),0.405%
21,O=c1[nH]c(=O)n(Cc2ccco2)c(O)c1C=NCc1ccc2c(c1)OCO2,-8.18%
22,Cc1cc(C)c(NC(=O)CN2C(=O)NC3(CCOc4ccccc43)C2=O)c(C)c1 (stereo not shown),-0.449%

row,Structure (SMILES),"hERG current change (%, negative = inhibition) at 1uM"
1,O=C1OC(CC(=O)N(Cc2nnc(-c3ccc(Cl)cc3)o2)C2CC2)c2ccccc21 (stereo not shown),-16%
2,CCC(C)c1ccc(NC(=S)N2CCN(c3ccccn3)CC2)cc1 (stereo not shown),7.7%
3,COc1cccc(-c2csc(N3CCN(C(=S)Nc4ccccc4OC)CC3)n2)c1,10.8%
4,CC1(C)CC(=O)/C(=C(/O)CCCN2C(=O)c3ccccc3C2=O)C(=NC(C)(C)C)C1,5.79%
5,COCCn1c(-c2ccc(OC)cc2)cnc1N,-0.397%
6,Cc1nn(C(=O)c2cccc([N+](=O)[O-])c2)c(C)c1Cl,16.7%
7,O=c1oc2ccccc2c2c1C(c1ccc(Cl)cc1)Nc1ccc3ccccc3c1-2 (stereo not shown),14.4%
8,Cc1cccc(C#N)c1NC1=CC(=O)CC(C)(C)C1.Cl,1.89%
9,O=C(Cn1c(C(F)(F)F)nc2ccccc21)N=Nc1c(O)[nH]c2ccc(Br)cc12,13.3%
10,CCOC(=O)c1sc2ccccc2c1OC(=O)c1ccccc1,7.67%
11,CC(C)c1ccc(NC(=O)CCCN2C(=O)NC(C)(C)C2=O)cc1,16.1%
12,CCCCC1=CC2=CC(=O)C(C)(OC(=O)CC)C(=O)C2=CN1CCc1ccccn1 (stereo not shown),12.6%
13,COc1ccc(NC(=O)O/N=C/c2ccccc2Cl)cc1,15%
14,O=C(Nc1ccc(F)cc1F)c1cncc(Br)c1,9.97%
15,COC(=O)c1ccc(N2C(=O)CC(N3CCC(n4c(=O)[nH]c5ccccc54)CC3)C2=O)cc1 (stereo not shown),5.68%
16,COc1ccc(NC(=O)c2ccc(-c3ccccc3)cc2)cc1S(=O)(=O)N1CCOCC1,19.2%
17,CCCNC(=O)OCC12CC3CC(CC(C3)C1)C2,11.5%
18,COc1ccc(N2CCN(C(=S)Nc3ccc(C)cc3C)CC2)cc1,21.8%
19,CCC(C)(C)NC(=O)C(OC(=O)c1ccco1)c1ccccc1F (stereo not shown),14.5%
20,Cc1ccc(N=c2c([N+](=O)[O-])nn(-c3ccc4c(c3)OCCO4)n2O)c(Cl)c1,4.95%
21,CC(=O)c1ccc(NC(=O)CCc2nnc3ccc(N4CCC5(CC4)OCCO5)nn23)cc1,7.55%
22,Cc1ccc(OCc2ccccc2C)c([N+](=O)[O-])n1,10.5%
